Reference: the RNAGym collection of RNA variant scans (doi:10.7554/elife.90254)
Read counts are not given, so values of variants with three or more changes are uncertain.

B1: LINE1-mini (parent)
chain: GGCAGAGCUCAACACAGCGUGGCAAAGUGGCUGUGGCUAGACUGCC

Variants of: B1
Experiment: self-cleavage, relative activity (ratio to wild type); higher = more cleavage; in vitro, sequencing; the parent is a self-cleaving ribozyme

Variant	self-cleavage
C3A A14U G21U A26G C45G	0.32
C3U A11G U32A G44A	0.01
C15U A25U C42A	0.15
U9A A12C A16C C18G G21A C23A A24C G29A C31U	0.01
C3A A24G U32C	0.2
G5U G29C G36U A39U	0.01
C8G A12G A16C	0.02
G5A A6C U32A G36U	0.01
G2U C8G C10U A12C A25C C37G U38G	0
C10G C31U G36A U43C	0
A6U G27U G44C	1.81
G19A G22U U43C	0.1
A11G A25G C46G	0.04
G5A C8G G35U	0.15
G17C C18A G27U U28C C46A	0.04
G36A U38G G40U	0
C3A A11U U20C G29A C46U	0.02
A12U G22U C46U	0.08
C3A G29A C42U	0.34
C3U A11C C37G	0.02
G2U G5A C10A	0.02
U9C A11C A12C U34A U38G	0.01
A4G A26G C42A U43G C46A	0.04
G19U A24U U28C G33C U38A	0.19

Variant	self-cleavage
A4U G5A C37G A39C	0.09
A11G G40U G44A C45U	0.01
G17C G22C U28C	0.17
G17A U20A U43G C46A	0.02
G17C G29A C42U G44U	0.01
A12U A14G C15A G21U C37G U38A G40U	0.01
C10A A12C C31A C46G	0
A6U A12G G40U	0.08
A16C U28C U43C G44A	0.03
C8A A11U A25U U28A	0.02
C3A A16U G33U C37A G40U C45U C46G	0.09
G5A U9G C10G G27C	0.04
G19A U28A C31G U34C	0.04
A12C A14U G19C A24U G33C G40A	0.01
C3U C18U U28A G33A	0.12
G2A A6C G19C A41U G44A	0.02
C15G A16C G35U A41C	0.02
C8U A11U G33C	0
A11U G19U A26C G29A	0.06
C13A A24G G44A	0.03
G5A U9A A26G U38A	0.31
A11U A14G C46A	0.03
G5U A14U U32G C45G	0.09
A16G C18U A25C C31U G40A	0.01

Variant	self-cleavage
G7C C31A C42A	0.06
G7A A11U U34A G40U	0.01
C8A G30U G36C	0.09
C10U G29U A39U	0.65
G17U G19U U32C C37A A41G C46A	0
G19U C23A C37A A41G	0.05
C10U C23U G29U G30U	0.41
G2A C18A C31U G36C U38C A41C	0.02
A4U G36C C45G	0.11
A25U G27U U34A	0.04
A6G A39C G44U	0.18
G1C G7C C18U C46A	0.02
A14C U32A G36C C42G	0.04
U9C A11U A14U G33U	0.02
C8U C10G G29U G44U	0.03
U9C A16G A24U G35A	0.02
G1U C8G A14C G19U U28A	0
G2A G7U C10G G30U	0.03
A6C A26G G35A G36U A41G C42U	0.02
U9C A12G G33C	0.01
C10U C23U A24G	0.47
G7A C15U U20A U43G G44U	0.09
C18A U20C A41C	0.02
A16U G30A C46G	0.05

Variant	self-cleavage
A14C U28A A39G	0.03
U20A G36U G44A	0.01
G21C G27U G33C A39G G40U	0.13
C8A C15U G19U C37G	0.04
C8G G27U U43G C46U	0.01
G1U G17A A24U G35C	0.04
G5U C13U G19U	0.04
C15A G21A A24G U32C G35C	0.02
G27U A41G C42U	0.14
C3U A26G C46A	0.29
G1A C10A U20A G30A C31A G36C C46A	0.04
G21C C23A G27U G35U	0.07
A14C G21U G22A	0.09
G5U G7C C13U C15U A25G U28A	0.1
A4G G21C G40A	0.07
G17A C18U U32A G40U	0.13
C3G G7C U9A A14U G17U A39C	0.03
U9G C10A G22C	0.02
C13G A24U U28A	0.06
C3U G7C C8G U28G C31G	0.07
A11G C18A C23G	0.03
A6C C15G C42A C45U	0.01
G17C A25U G33U	0.21
G21A G29A U32G G33U C42U	0.03

Variant	self-cleavage
G7A A11U A14U G36C	0.03
G19C C23U G29A C45U	0.29
C8A C15A U43A	0.54
G5U G19A G21U C23G A39G	0.07
G1C C3G A39U	0.13
G22U C37G G44U	0.28
C15U G17C U20C G44A	0.01
C8A G19A G36C	0.27
G1A C3U G5C G19U G35A A39G	0.25
C8A C23A A25C G30A	0.17
C10U G21A G40U	0.03
G7A C31U U43A G44U	0.03
C8A G19C G22A	0.07
G5A A14G A26U G40A C46U	0.11
A24G C31A U43A	0.19
C23G G29U C37G	0.04
G5A A14C C15G G17A C23A U32A	0.03
G7U C10G G29A	0.03
G1A G5U G22C U32A C45G	0.04
A4C A12U G29A C37U G40A U43A	0.28
G1U C13U G30U U43G	0
C10U A39U C45G	0.34
C8G C10A A26U U28C	0.01
C3A U9G C45G	0.94

Variant	self-cleavage
G7U C13U C46U	0.03
C15U U38C U43A	0.03
G22A C31A G35A	0.02
G2A U20C G30C U34G G35C C45A	0.34
G5A G30U G40U	0.02
C15A C23U C37G	0.02
C8G A14C G27U A41G C46U	0.04
G7A A11U G29U	0.03
U38A A39C C42U C45U	0.04
G5U A14U G33A	0.29
C18U U20A U43C	0.14
G5A A6U U20C G29U	0.05
C18U A24G G30A C31A U32G G36U	0.03
G5U C23A G33A	0.04
C18A C31U G33A G35C	0.1
G7A G35A G40U G44A	0.23
A14C C15U G21A	0.05
A14U C18A U20C G29C	0.06
G5C G22C A24G G29U	0.04
C3G A4C C13G A16U C18U G33A A41G C46G	0.22
A6U C13U G30A	0.19
G2U A6U G22U G27U	0.07
G7A A11G U28A A41G	0.01
C15A A16C G19U G21U U32A C42A U43A	0.01

Variant	self-cleavage
A11G C18A U20C U38A	0.01
U20C G22C U38G	0
C3U A14U G40U	0.04
A6C U38A C46G	0.06
A25G G29A G30C G40C	0.05
G5U C8G C18A G36A	0.07
A6G A16U C37G	0.02
C10A A26C U32G	0.02
A14G A39C C42A	0
C10A A11C C37A U38A A39U U43A	0.01
A16U G27U G44A	0.11
A4G A6U C15G C31A	0.01
G22U A25U C37G	0.23
G7U C8U G17U C23U	0.33
A4G G7A G17C A41G C46A	0.59
G7A G29A U34C	0.07
C18A A24G G30A	0.87
G33U G35A A39G C46G	0.04
C23A U28G U34G U43A	0.04
G1C G27C C45A	0.08
G29U C42G C46U	0.03
A11U C15U G17A A25C A26U G40A C42G	0
A6C C23U G36C	0.08
